# Measurements from the supplement of paper PMC8728848.
# Some of the results follow.
# B1: Pa IMPa (Pseudomonas aeruginosa), Q9I5W4 (protein)
# chain: MSLSTTAFPSLQGENMSRSPIPRHRALLAGFCLAGALSAQAATQEEILDAALVSGDSSQLTDSHLVALRLQQQVERIRQTRTQLLDGLYQNLSQAYDPGAASMWVLPANPDNTLPFLIGDKGRVLASLSLEAGGRGLAYGTNVLTQLSGTNAAHAPLLKRAVQWLVNGDPGAATAKDFKVSVVGVDKTAALNGLKSAGLQPADAACNALTDASCASTSKLLVLGNGASAASLSATVRARLQAGLPILFVHTNGWNQSSTGQQILAGLGLQEGPYGGNYWDKDRVPSSRTRTRSVELGGAYGQDPALVQQIVDGSWRTDYDWSKCTSYVGRTTCDDVPGLSDFSKRVDVLKGALDAYNQKAQNLFALPGTTSLRLWLLWADAVRQNIRYPMDKAADTARFQETFVADAIVGYVREAGAAQKELGSYAGQRQQSMPVSGSEETLTLTLPSAQGFTAIGRMAAPGKRLSIRIEDAGQASLAVGLNTQRIGSTRLWNTRQYDRPRFLKSPDIKLQANQSVALVSPYGGLLQLVYSGATPGQTVTVKVTGAASQPFLDIQPGEDSSQAIADFIQALDADKADWLEIRSGSVEVHAKVEKVRGSIDKDYGGDVQRFIRELNEVFIDDAYTLAGFAIPNQAKTPAIQQECAARGWDCDSETLHKLPGTQHINVDQYAQCGGGCSGNPYDQTWGLNPRGWGESHELGHNLQVNRLKVYGGRSGEISNQIFPLHKDWRVLREFGQNLDDTRVNYRNAYNLIVAGRAEADPLAGVYKRLWEDPGTYALNGERMAFYTQWVHYWADLKNDPLQGWDIWTLLYLHQRQVDKSDWDANKAALGYGTYAQRPGNSGDASSTDGNDNLLLGLSWLTQRDQRPTFALWGIRTSAAAQAQVAAYGFAEQPAFFYANNRTNEYSTVKLLDMSQGSPAWPFP
# Legend:
# Experiment in all cases: glycan array binding signal (z-score within array); higher = stronger binding
# Details in all cases: glycan notation: IUPAC condensed, linker removed
# [1] = biological target: Gal(b1-4)GlcNAc(b1-3)Gal(b1-4)GlcNAc(b1-2)[Gal(b1-4)GlcNAc(b1-3)Gal(b1-4)GlcNAc(b1-6)]Man(a1-6)[Gal(b1-4)GlcNAc(b1-3)Gal(b1-4)GlcNAc(b1-2)Man(a1-3)]Man(b1-4)GlcNAc(b1-4)GlcNAc
# Method in brief: (§1)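 Glycan array data came from 3228 arrays in the Consortium for Functional Glycomics database, and only arrays with an available protein sequence were kept. Glycan names were put into IUPAC-condensed notation, and columns mapping to the same glycan were averaged. The binding signal is a within-array Z-score, averaged across arrays of one protein sequence run at different concentrations or buffers and across linkers. A negative Z-score can be read as non-binding.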
# [2] = biological target: Gal(b1-4)GlcNAc(b1-3)Gal(b1-4)GlcNAc(b1-2)[Gal(b1-4)GlcNAc(b1-3)Gal(b1-4)GlcNAc(b1-6)]Man(a1-6)[Gal(b1-4)GlcNAc(b1-3)Gal(b1-4)GlcNAc(b1-2)Man(a1-3)]Man(b1-4)GlcNAc(b1-4)[Fuc(a1-6)]GlcNAc
# Method in brief: as §1
# [3] = biological target: Gal(b1-4)GlcNAc(b1-3)Gal(b1-4)GlcNAc(b1-3)Gal(b1-4)GlcNAc
# Method in brief: as §1
# [4] = biological target: Gal(b1-4)GlcNAc(b1-3)Gal(b1-4)GlcNAc(b1-3)Gal(b1-4)GlcNAc(b1-2)Man(a1-3)[Gal(b1-4)GlcNAc(b1-3)Gal(b1-4)GlcNAc(b1-3)Gal(b1-4)GlcNAc(b1-2)Man(a1-6)]Man(b1-4)GlcNAc(b1-4)GlcNAc
# Method in brief: as §1
# [5] = biological target: Gal(b1-4)GlcNAc(b1-3)Gal(b1-4)GlcNAc(b1-3)Gal(b1-4)GlcNAc(b1-2)Man(a1-3)[Gal(b1-4)GlcNAc(b1-3)Gal(b1-4)GlcNAc(b1-3)Gal(b1-4)GlcNAc(b1-2)Man(a1-6)]Man(b1-4)GlcNAc(b1-4)[Fuc(a1-6)]GlcNAc
# Method in brief: as §1
# [6] = biological target: Gal(b1-4)GlcNAc(b1-3)Gal(b1-4)GlcNAc(b1-3)Gal(b1-4)GlcNAc(b1-2)[Gal(b1-4)GlcNAc(b1-3)Gal(b1-4)GlcNAc(b1-3)Gal(b1-4)GlcNAc(b1-6)]Man(a1-6)[Gal(b1-4)GlcNAc(b1-3)Gal(b1-4)GlcNAc(b1-3)Gal(b1-4)GlcNAc(b1-2)Man(a1-3)]Man(b1-4)GlcNAc(b1-4)[Fuc(a1-6)]GlcNAc
# Method in brief: as §1
# [7] = biological target: Gal(b1-4)GlcNAc(b1-3)Gal(b1-4)GlcNAc(b1-3)Gal(b1-4)GlcNAc(b1-3)Gal(b1-4)GlcNAc(b1-2)Man(a1-3)[Gal(b1-4)GlcNAc(b1-3)Gal(b1-4)GlcNAc(b1-3)Gal(b1-4)GlcNAc(b1-3)Gal(b1-4)GlcNAc(b1-2)Man(a1-6)]Man(b1-4)GlcNAc(b1-4)GlcNAc
# Method in brief: as §1
# [8] = biological target: Gal(b1-4)GlcNAc(b1-3)Gal(b1-4)GlcNAc(b1-3)Gal(b1-4)GlcNAc(b1-3)Gal(b1-4)GlcNAc(b1-2)Man(a1-3)[Gal(b1-4)GlcNAc(b1-3)Gal(b1-4)GlcNAc(b1-3)Gal(b1-4)GlcNAc(b1-3)Gal(b1-4)GlcNAc(b1-2)Man(a1-6)]Man(b1-4)GlcNAc(b1-4)[Fuc(a1-6)]GlcNAc
# Method in brief: as §1
# [9] = biological target: Gal(b1-4)GlcNAc(b1-3)Gal(b1-4)GlcNAc(b1-3)Gal(b1-4)GlcNAc(b1-3)Gal(b1-4)GlcNAc(b1-2)[Gal(b1-4)GlcNAc(b1-3)Gal(b1-4)GlcNAc(b1-3)Gal(b1-4)GlcNAc(b1-3)Gal(b1-4)GlcNAc(b1-6)]Man(a1-6)[Gal(b1-4)GlcNAc(b1-3)Gal(b1-4)GlcNAc(b1-3)Gal(b1-4)GlcNAc(b1-3)Gal(b1-4)GlcNAc(b1-2)Man(a1-3)]Man(b1-4)GlcNAc(b1-4)[Fuc(a1-6)]GlcNAc
# Method in brief: as §1
# [10] = biological target: Gal(b1-4)GlcNAc(b1-3)Gal(b1-4)GlcNAc(b1-3)Gal(b1-4)GlcNAc(b1-3)Gal(b1-4)GlcNAc(b1-3)Gal(b1-4)GlcNAc(b1-2)Man(a1-3)[Gal(b1-4)GlcNAc(b1-3)Gal(b1-4)GlcNAc(b1-3)Gal(b1-4)GlcNAc(b1-3)Gal(b1-4)GlcNAc(b1-3)Gal(b1-4)GlcNAc(b1-2)Man(a1-6)]Man(b1-4)GlcNAc(b1-4)GlcNAc
# Method in brief: as §1
# [11] = biological target: Gal(b1-4)GlcNAc(b1-3)Gal(b1-4)GlcNAc(b1-3)Gal(b1-4)GlcNAc(b1-3)Gal(b1-4)GlcNAc(b1-3)Gal(b1-4)GlcNAc(b1-2)Man(a1-3)[Gal(b1-4)GlcNAc(b1-3)Gal(b1-4)GlcNAc(b1-3)Gal(b1-4)GlcNAc(b1-3)Gal(b1-4)GlcNAc(b1-3)Gal(b1-4)GlcNAc(b1-2)Man(a1-6)]Man(b1-4)GlcNAc(b1-4)[Fuc(a1-6)]GlcNAc
# Method in brief: as §1
# [12] = biological target: Gal(b1-4)GlcNAc(b1-3)Gal(b1-4)GlcNAc(b1-3)Gal(b1-4)GlcNAc(b1-3)Gal(b1-4)GlcNAc(b1-3)Gal(b1-4)GlcNAc(b1-2)[Gal(b1-4)GlcNAc(b1-3)Gal(b1-4)GlcNAc(b1-3)Gal(b1-4)GlcNAc(b1-3)Gal(b1-4)GlcNAc(b1-3)Gal(b1-4)GlcNAc(b1-6)]Man(a1-6)[Gal(b1-4)GlcNAc(b1-3)Gal(b1-4)GlcNAc(b1-3)Gal(b1-4)GlcNAc(b1-3)Gal(b1-4)GlcNAc(b1-3)Gal(b1-4)GlcNAc(b1-2)Man(a1-3)]Man(b1-4)GlcNAc(b1-4)[Fuc(a1-6)]GlcNAc
# Method in brief: as §1
# [13] = biological target: Gal(b1-4)GlcNAc(b1-3)Gal(b1-4)GlcNAc(b1-3)Gal(b1-4)GlcNAc(b1-3)Gal(b1-4)GlcNAc(b1-3)Gal(b1-4)GlcNAc(b1-3)Gal(b1-4)GlcNAc(b1-2)Man(a1-3)[Gal(b1-4)GlcNAc(b1-3)Gal(b1-4)GlcNAc(b1-3)Gal(b1-4)GlcNAc(b1-3)Gal(b1-4)GlcNAc(b1-3)Gal(b1-4)GlcNAc(b1-3)Gal(b1-4)GlcNAc(b1-2)Man(a1-6)]Man(b1-4)GlcNAc(b1-4)GlcNAc
# Method in brief: as §1
# [14] = biological target: Gal(b1-4)GlcNAc(b1-3)Gal(b1-4)GlcNAc(b1-3)GalNAc
# Method in brief: as §1
# [15] = biological target: Gal(b1-4)GlcNAc(b1-3)Gal(b1-4)GlcNAc(b1-3)[Gal(b1-4)GlcNAc(b1-3)Gal(b1-4)GlcNAc(b1-6)]GalNAc
# Method in brief: as §1
# [16] = biological target: Gal(b1-4)GlcNAc(b1-3)Gal(b1-4)GlcNAc(b1-6)[Gal(b1-3)]GalNAc
# Method in brief: as §1
# [17] = biological target: Gal(b1-4)GlcNAc(b1-3)Gal(b1-4)[Fuc(a1-3)]GlcNAc(b1-3)Gal(b1-4)[Fuc(a1-3)]GlcNAc
# Method in brief: as §1
# [18] = biological target: Gal(b1-4)GlcNAc(b1-3)GalNAc
# Method in brief: as §1
# [19] = biological target: Gal(b1-4)GlcNAc(b1-3)[Fuc(a1-3)GlcNAc(b1-6)]Gal(b1-4)Glc
# Method in brief: as §1
# [20] = biological target: Gal(b1-4)GlcNAc(b1-3)[Gal(b1-4)GlcNAc(b1-6)]Gal(b1-4)GlcNAc
# Method in brief: as §1
# [21] = biological target: Gal(b1-4)GlcNAc(b1-3)[GlcNAc(b1-6)]Gal(b1-4)GlcNAc
# Method in brief: as §1
# [22] = biological target: Gal(b1-4)GlcNAc(b1-6)Gal(b1-4)GlcNAc
# Method in brief: as §1
# [23] = biological target: Gal(b1-4)GlcNAc(b1-6)GalNAc
# Method in brief: as §1
# [24] = biological target: Gal(b1-4)GlcNAc(b1-6)[Gal(b1-3)]GalNAc
# Method in brief: as §1
# [25] = biological target: Gal(b1-4)GlcNAc(b1-6)[Gal(b1-4)GlcNAc(b1-3)]GalNAc
# Method in brief: as §1
# Gal(b1-4)GlcNAc6P = biological target: Gal(b1-4)GlcNAc6P
# Method in brief: as §1
# Gal(b1-6)Gal = biological target: Gal(b1-6)Gal
# Method in brief: as §1
# Gal3S(b1-3)GalNAc = biological target: Gal3S(b1-3)GalNAc
# Method in brief: as §1
# Gal3S(b1-3)GlcNAc = biological target: Gal3S(b1-3)GlcNAc
# Method in brief: as §1
# [26] = biological target: Gal3S(b1-3)[Fuc(a1-4)]GlcNAc
# Method in brief: as §1
binder,measurement,setting,value
B1,glycan array binding signal (z-score),[1],0.343
same,glycan array binding signal (z-score),[2],-0.092
same,glycan array binding signal (z-score),[3],-0.198
same,glycan array binding signal (z-score),[4],-0.029
same,glycan array binding signal (z-score),[5],0.811
same,glycan array binding signal (z-score),[6],-0.021
same,glycan array binding signal (z-score),[7],-0.445
same,glycan array binding signal (z-score),[8],0.038
same,glycan array binding signal (z-score),[9],-0.395
same,glycan array binding signal (z-score),[10],10.7
same,glycan array binding signal (z-score),[11],-0.209
same,glycan array binding signal (z-score),[12],0.196
same,glycan array binding signal (z-score),[13],-0.219
same,glycan array binding signal (z-score),[14],-0.316
same,glycan array binding signal (z-score),[15],-0.144
same,glycan array binding signal (z-score),[16],0.236
same,glycan array binding signal (z-score),[17],-0.339
same,glycan array binding signal (z-score),[18],-0.231
same,glycan array binding signal (z-score),[19],-0.301
same,glycan array binding signal (z-score),[20],-0.061
same,glycan array binding signal (z-score),[21],-0.16
same,glycan array binding signal (z-score),[22],-0.112
same,glycan array binding signal (z-score),[23],-0.227
same,glycan array binding signal (z-score),[24],-0.133
same,glycan array binding signal (z-score),[25],0.162
same,glycan array binding signal (z-score),Gal(b1-4)GlcNAc6P,-0.446
same,glycan array binding signal (z-score),Gal(b1-6)Gal,0.022
same,glycan array binding signal (z-score),Gal3S(b1-3)GalNAc,0.375
same,glycan array binding signal (z-score),Gal3S(b1-3)GlcNAc,-0.254
same,glycan array binding signal (z-score),[26],-0.143
